# Laboratory results: PMC7819943, “Rice protein-binding microarrays: a tool to detect cis-acting elements near promoter regions in rice”
# The other results are listed elsewhere or left out.
# Target: T1, OsWOX13 (Oryza sativa, UniProt Q5QMM3 1-267)
# T1 sequence: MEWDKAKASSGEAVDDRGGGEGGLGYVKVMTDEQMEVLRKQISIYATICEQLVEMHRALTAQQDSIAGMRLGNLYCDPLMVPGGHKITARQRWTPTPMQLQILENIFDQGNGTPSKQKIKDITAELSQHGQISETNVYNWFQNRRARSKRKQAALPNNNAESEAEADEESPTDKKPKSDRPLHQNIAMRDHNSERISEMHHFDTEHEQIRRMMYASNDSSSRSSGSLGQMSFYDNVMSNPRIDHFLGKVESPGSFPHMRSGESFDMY
# Assay: protein-binding microarray (RPBM); PBS, 2% BSA, 51.3 ng/ul salmon testes DNA, 50 uM zinc acetate, 200 nM TF, 25 C, 1 h; high values mean tight binding
# Settings: protein: recombinant; tags: N-terminal polyhistidine and DsRed monomer fusion (pET32a); label: CyDye5-dUTP incorporated in the synthesized complementary strand; 3' TTTTT single-stranded linker to array surface; dsDNA, one strand shown
# Outline: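 For the binding signal, per-feature fluorescence intensity was read in arbitrary units on an Axon 4000B scanner. Before scanning, a 2% BSA-blocked custom Agilent array made double-stranded with Cy5-dUTP was washed after 1 h at 25 °C with 200 nM protein and 50 µM zinc acetate. The proteins were Ni–NTA-purified transcription factors with N-terminal polyhistidine and DsRed fusions, expressed in E. coli BL21-CodonPlus.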
row,Sequence,binding signal
1,ATGGATAGATTGAAACATCAAGGACTAAACTGTGTCTCAGCGGAGTCACCTAGTGCAG,46100 fluorescence intensity (a.u.)
2,GGATCAAATTGCCACATATGCGCCACGTTAATGCCACATCCGGAGTCACCTAGTGCAG,3520 fluorescence intensity (a.u.)
3,GTGATAATCATAACAAGTGATAACCTTGATGCACGGGAAACGGAGTCACCTAGTGCAG,5800 fluorescence intensity (a.u.)
4,ACATAATTATTTAGTATGGATATGTGTTGCAAGCTTGCAGCGGAGTCACCTAGTGCAG,20600 fluorescence intensity (a.u.)
5,TATGATATATTCTGTCAAACCTATGTACTATACACCTTACCGGAGTCACCTAGTGCAG,3560 fluorescence intensity (a.u.)
6,TGTAATTTCCGTCAACTAAAGCCCAATTGAATCAAGGTTCCGGAGTCACCTAGTGCAG,14000 fluorescence intensity (a.u.)
7,ATGGGTTAATTGCTTATTTGCAATGATTTATCAGGCTGGACGGAGTCACCTAGTGCAG,39600 fluorescence intensity (a.u.)
8,TCATCGTTGATTGAATCGCTTAATTTGGTGCATGCTTGGACGGAGTCACCTAGTGCAG,39000 fluorescence intensity (a.u.)
9,ACCAGTAATCAAATCTTTGCATTTACTCGCACATTTAGTACGGAGTCACCTAGTGCAG,3230 fluorescence intensity (a.u.)
10,TTTTGATTCATATATTACTGACATGTCTCGTTGTTTCGCCCGGAGTCACCTAGTGCAG,3530 fluorescence intensity (a.u.)
11,CAAATTGAACTATCCAATTATCATCCATCACCAACTCTCCCGGAGTCACCTAGTGCAG,19200 fluorescence intensity (a.u.)
12,TTATGTAATTAGTTTTGTAAGTAGTCTATATTTAATACCCCGGAGTCACCTAGTGCAG,12900 fluorescence intensity (a.u.)
13,TCACAAATGACAGAACTTACAGGCTCTTCACCTCTCTACTCGGAGTCACCTAGTGCAG,3540 fluorescence intensity (a.u.)
14,ATATAATACTTAATTTATTATGCATTAATGAATGGTTCTGCGGAGTCACCTAGTGCAG,15900 fluorescence intensity (a.u.)
15,ACTGTTTAATTTGTTTGTTATCAATTTGCTACAAACCGCACGGAGTCACCTAGTGCAG,20700 fluorescence intensity (a.u.)
16,ATAATTTACTGTATAATTAGAGAAAATCCAAGAAATACCACGGAGTCACCTAGTGCAG,32300 fluorescence intensity (a.u.)
17,TAAAACTGTCGTTTAATTGGATCAGAATCAACCAGCTAACCGGAGTCACCTAGTGCAG,22400 fluorescence intensity (a.u.)
18,TTGATTTGATTCATCACCAGGATTACATTTATAGAGCATTCGGAGTCACCTAGTGCAG,25600 fluorescence intensity (a.u.)
19,GTATAATTTCCTTGTTTTAATTTCAATATGTTTATTTGTACGGAGTCACCTAGTGCAG,15100 fluorescence intensity (a.u.)
20,CATCCAATCAGTTTAGACAAGGTAAAGTCTCATTTTCACACGGAGTCACCTAGTGCAG,17800 fluorescence intensity (a.u.)
21,AAGAGAAGAAAATCATTTTCTAATTAACCATCCTGGTTCTCGGAGTCACCTAGTGCAG,5390 fluorescence intensity (a.u.)

row,Sequence,binding signal
1,CTCTGCTTAATGATTAGAGTAAGATTAAAAGGTGATAGCGCGGAGTCACCTAGTGCAG,13300 fluorescence intensity (a.u.)
2,ATTATGATGATAGAGATAGGTTCTGCATATTTCTTTTACCCGGAGTCACCTAGTGCAG,5860 fluorescence intensity (a.u.)
3,CTGATTGCGATTACGACGTAAACATCAGGACCGTAGGGACCGGAGTCACCTAGTGCAG,40800 fluorescence intensity (a.u.)
4,GTAAATTAGCTTGCGGATTGCAGCAGAATAGCTCATTCGGCGGAGTCACCTAGTGCAG,23700 fluorescence intensity (a.u.)
5,AAAATTATATAATTAGAAACACGAGGATGCTAAGATTTGGCGGAGTCACCTAGTGCAG,29300 fluorescence intensity (a.u.)
6,TCGTTCATTTGACACTGATTGAAACAAATTAAATGAATTTCGGAGTCACCTAGTGCAG,30000 fluorescence intensity (a.u.)
7,TACAGAGATAATTAGCAACAATAATGGTTCCATGGTGTAGCGGAGTCACCTAGTGCAG,19000 fluorescence intensity (a.u.)
8,GTGATGGAGGGGTGATGTGATGGGGCGTAGAATGATATACCGGAGTCACCTAGTGCAG,8280 fluorescence intensity (a.u.)
9,AGATTAATTAGGATCAAAAGATTCGTCTCGCGGTTTTCAGCGGAGTCACCTAGTGCAG,18800 fluorescence intensity (a.u.)
10,TAAAAGATAATTATTGTAACAAGATCTTAAATATCTTAGACGGAGTCACCTAGTGCAG,6770 fluorescence intensity (a.u.)
11,AGTAATTAGTATGACCACCCTAATATACGGTAGTATGGTACGGAGTCACCTAGTGCAG,27200 fluorescence intensity (a.u.)
12,TGGATTGGATTGGATTGGGTTTCTGTGTGTGGAGGTGTGTCGGAGTCACCTAGTGCAG,45800 fluorescence intensity (a.u.)
13,ACCCTCCAAATAAATTGGAGGAAATTAAATTAGGAGGCTTCGGAGTCACCTAGTGCAG,14900 fluorescence intensity (a.u.)
14,TTCATTCATGTTAATAGATTTAAATAATAAGGCTCAGATCCGGAGTCACCTAGTGCAG,3260 fluorescence intensity (a.u.)
15,TCTATAAATTGAACATGTTTCAAACCAGGCTTGCAAGTTGCGGAGTCACCTAGTGCAG,15500 fluorescence intensity (a.u.)
16,CGAGCTTAATTTGCTTAAACTAGTGCTGGCTCCCTCGGATCGGAGTCACCTAGTGCAG,19100 fluorescence intensity (a.u.)
17,AAACTCCTAATTAAGTTATCCTGACTCCATTGGAAAGAGTCGGAGTCACCTAGTGCAG,5630 fluorescence intensity (a.u.)
18,TACTTGCTCGATTAGTTTATTAATTAATGCCCTAATCATCCGGAGTCACCTAGTGCAG,10600 fluorescence intensity (a.u.)
19,CCAATTTTCAATCAGTACTATCATGGAGACGACTTCCATACGGAGTCACCTAGTGCAG,15300 fluorescence intensity (a.u.)
20,GAAATAATTATACTAAATCCAGATGTTGCATGCATGATACCGGAGTCACCTAGTGCAG,11400 fluorescence intensity (a.u.)
21,AGTTAACGGCGTTAACTGTATACCCCGCGAGACAATGACACGGAGTCACCTAGTGCAG,4080 fluorescence intensity (a.u.)
